Test results taken from paper PMC6919601, “Identification of Plasmodium dipeptidyl aminopeptidase allosteric inhibitors by high throughput screening” (PLoS ONE, 2019).
The campaign covered roughly 110,000 compounds. About 230 (0.21%) showed an effect of 50% or more. The list shows a part of the results.

biological target: DPAP1 (Plasmodium falciparum, UniProt Q8IIJ9); assay: primary screen, percent inhibition; read by cleavage of a fluorogenic dipeptide substrate; higher = more effect of the substance; parameters: species or system P. falciparum D10 trophozoite lysates; single well
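Also: 30 min substrate incubation versus DMSO and 10 µM JCP410 controls.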

DPAP1, sequence (Q8IIJ9 whole entry, looked up): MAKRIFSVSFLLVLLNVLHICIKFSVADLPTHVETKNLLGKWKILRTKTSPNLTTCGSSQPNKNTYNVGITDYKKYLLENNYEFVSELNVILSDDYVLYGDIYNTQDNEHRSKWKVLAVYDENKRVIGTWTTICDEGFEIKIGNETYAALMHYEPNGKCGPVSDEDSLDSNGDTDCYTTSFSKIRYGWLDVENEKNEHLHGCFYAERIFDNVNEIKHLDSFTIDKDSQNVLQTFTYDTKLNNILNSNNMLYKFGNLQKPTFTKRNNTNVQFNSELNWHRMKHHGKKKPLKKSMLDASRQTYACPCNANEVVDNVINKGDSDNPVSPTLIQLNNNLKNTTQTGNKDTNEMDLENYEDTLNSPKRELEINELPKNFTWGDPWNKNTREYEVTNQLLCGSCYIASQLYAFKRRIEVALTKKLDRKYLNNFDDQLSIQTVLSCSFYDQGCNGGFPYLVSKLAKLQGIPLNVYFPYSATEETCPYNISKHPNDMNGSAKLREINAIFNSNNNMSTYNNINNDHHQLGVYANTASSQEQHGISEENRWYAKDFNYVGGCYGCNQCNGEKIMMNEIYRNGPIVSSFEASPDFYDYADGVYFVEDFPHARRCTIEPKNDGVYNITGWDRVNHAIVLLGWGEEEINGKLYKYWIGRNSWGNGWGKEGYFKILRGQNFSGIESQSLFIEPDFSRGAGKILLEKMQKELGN

Compound | % Inhibition @ 10 uM [%]
COc1ccc(N2CCN(C(=O)COc3ccc(Br)cc3Cl)CC2)cc1 | -10.4
O=C(O)c1ccc(NS(=O)(=O)c2ccc(Cl)cc2)cc1 | -0.0619
C=CCOCCn1c2ccccc2c2ccccc21 | -2.02
COc1ccc(Sc2nn3nnnc3c3ccccc23)cc1 | 3.59
COc1ccccc1C(=O)Nc1nnc(S(=O)(=O)N2CCOCC2)s1 | 3.3
COCCNC(=O)c1ccc(CS(=O)c2cccc(Cl)c2)o1 (stereo not shown) | 4.9
CC(=O)Nc1ccc(C2C(C#N)=C(N)Oc3cc(O)ccc32)cc1 (stereo not shown) | -3.85
O=C(c1cc(-c2ccc(Cl)cc2)n[nH]1)N1CC=C(c2ccccc2)CC1 | 7.04
COC(=O)[C@]1(C)C=C2C3=CC(=O)C4[C@@]5(C)CCC(O)C(C)(C)C5CC[C@@]4(C)[C@]3(C)CC[C@@]2(C)CC1 (stereo partly shown) | -1.2
O=C(Cn1c(=O)c2cccn2c2cccnc21)NC1CCCc2ccccc21 (stereo not shown) | 12.9
Cc1c(CNC(=O)c2cnn3c(C(F)(F)F)cc(-c4ccc(Br)cc4)nc23)cnn1C | -5.57
CCn1c2ccccc2c2nnc(NCc3ccccc3Cl)nc21 | -3.42
CC1CCN(CCCNC(=O)CCc2nnc3n(Cc4ccccc4)c(=O)c4ccccc4n23)CC1 | 5.68
O=C(NCCC1=CCCCC1)c1ccc(CS(=O)Cc2cccc(Cl)c2)o1 (stereo not shown) | -3.32
CCOc1ccc(N2C(=O)CC(N(CCc3ccc(OC)cc3)C(C)=O)C2=O)cc1 (stereo not shown) | 0.431
CC(C)C[C@H](NC(=O)OCc1ccccc1)C(=O)N[C@@H](CCc1ccccc1)C(=O)C[N+](=O)[O-] | 7.72
Cc1cc(C)c2c(n1)nn1c(C3CC3)cc(C(F)(F)F)nc21 | 2.54
Cc1cc(C)c(Cn2c3ccccc3c3cnn(CC(=O)NC(C)C)c(=O)c32)c(C)c1 | -5.19
Cc1ccc2c(c1)C1(C(=O)N2)C(C#N)=C(N)OC2=C1CCN2 (stereo not shown) | 3.46
CSc1ccc(/C=C2\N=C(c3ccc(C)cc3)OC2=O)cc1 | -1.87
CC1CCN(C(=O)C23CC4CC(CC(C4)C2)C3)CC1 | -2.42
COc1ccc(OC)c(NC(=O)C2CCN(S(=O)(=O)c3cc(Cl)ccc3Cl)CC2)c1 | -0.795
c1coc(CN2CCN(Cc3ccc4c(c3)OCO4)CC2)c1 | -2.87
Cc1ccc(C(=O)N/C(=C\C2=Cc3ccccc3OC2C)C(=O)NCc2cccnc2)cc1 (stereo not shown) | 2.03
CC(C)C[C@H](Nc1nc(-c2ccccc2)cs1)C(=O)NCC#N | -6.46

Compound | % Inhibition @ 10 uM [%]
CC(NCC(O)COc1ccccc1)C1COc2ccccc2O1 (stereo not shown) | -1.55
O=C(c1cccnc1)N1CCN(c2ccc(Cl)cc2)CC1 | 2.16
CC1=C(C#N)C(c2ccc(C)cc2)C2=C(O)CC(c3ccccc3)CC2=N1 (stereo not shown) | 2.44
CCC(C(=O)NCCc1ccccc1)n1ncn2c(cc3occc32)c1=O (stereo not shown) | -0.281
CCCN(CC#CC(O)(c1ccccc1)C1CCCC1)CCC (stereo not shown) | 0.774
Cc1cccc2[nH]c(SCC(=O)N3CCOCC3)nc12 | -2.22
COCCCNC(=O)C1CCCN(S(C)(=O)=O)C1 (stereo not shown) | -1.21
CCOC(=O)N1CCC(NC(=O)c2c(C)nn(-c3ccccc3)c2-n2cccc2)CC1 | 1.8
S=C(Nc1ccccc1)Nc1ccc2nc(S)sc2c1 | 39.8
Cc1ccccc1/C=N/n1c(C)nnc1C | 17
CCOc1ccccc1C1C(C#N)=C(C)N=C2CC(c3ccc(Cl)cc3)CC(O)=C21 (stereo not shown) | 18.2
Cc1noc(NS(=O)(=O)c2ccc(NC(=O)C3CC3c3ccccc3)cc2)c1C (stereo not shown) | -6.05
CSCC[C@H](NC(=O)OCc1ccccc1)C(=O)NCC#N | 2.86
COCC(=O)NCCCc1nc2ccccc2n1Cc1c(F)cccc1Cl | 7.17
CCN1C(=O)c2cccc3c(O)ccc1c23 | 4.22
CCOC(=O)/C=C/C(=O)Nc1sc2c(c1C#N)CCCC2 | -9.66
OC12CCCCC1C(c1c(Cl)cccc1Cl)NCC2 (stereo not shown) | -3.63
Nc1c(-c2nc(-c3cccnc3)no2)nnn1-c1cccc(C(F)(F)F)c1 | 0.0603
Cc1cc(N2C(=O)C3CCCN3C2c2ccccc2F)no1 (stereo not shown) | 2.9
Cc1oc2ccc(O)c(CN3CCCCC3C)c2c1C(=O)OCCOc1ccccc1 (stereo not shown) | 0.486
Clc1ccc(-n2ncc3c(NCC4CCCO4)ncnc32)cc1 (stereo not shown) | -0.757
Cc1cc(C)nc(NS(=O)(=O)c2ccc(NC(=O)C34CC5CC(CC(C5)C3)C4)cc2)n1 | 4.42
CCOc1ccc(C2CC(=O)N3CN(CCO)CSC3=C2C#N)cc1 (stereo not shown) | 61.2
O=C(CCCN1C(=O)C(c2ccccc2)Oc2cccnc21)NCCc1c[nH]c2ccccc12 (stereo not shown) | -2.1
